According to PubChem BioAssay AID686979 (National Center for Advancing Translational Sciences (NCATS), 2013):
The campaign covered roughly 420,000 compounds. About 50,000 (12%) were called active. Another 26% or so got no clear call; they are omitted. Calls come from the whole dose curve; as a rule, active = well fitted inhibition curve with a large enough effect; inconclusive = small, poorly fitted or top-dose-only effect; inactive = flat fitted curve, though single readings scatter. The entries are a selection whose mix differs from that of the whole data set. Where a structure was tested more than once in an assay, its records may differ in their call.

Test: qHTS for Inhibitors of human tyrosyl-DNA phosphodiesterase 1 (TDP1): qHTS in cells in presence of CPT; note: nearly all actives have a fitted effect of over 55% in size
Settings: chicken DT40 Tdp1-/-;hTDP1 cells + 20 nM CPT, ATP luminescence, 48 h; series mostly up to 46.2 µM; activity change, negative = growth inhibition: at the top concentration
In short: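 Cell growth measured by CellTiter-Glo luminescence after a minimum 48 h, 37 C compound exposure with 20 nM CPT in Tdp1-knockout DT40 cells stably expressing hTDP1, seeded 400/well; qHTS titration format.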
% is set by controls: 0 for no effect and ±100 for the full control effect; potency is the fitted concentration of half-maximal effect.

Structure (SMILES) | activity change, negative = growth inhibition | Potency
CC(OC(=O)c1cc2c(s1)CCCCC2)C(=O)NC(N)=O (stereo not given) | inactive: 22.4% | –
C[C@H](CO)N1C[C@H](C)[C@@H](CN(C)S(=O)(=O)c2ccc3ccccc3c2)OCc2cn(nn2)CCCC1=O | inactive: -2.94% | –
Clc1ccc2c(c1)C(N1CCNCC1)=Nc1ccccc1O2 | inactive: 1.63% | –
N#CC[C@H](Cc1ccccc1)N1CC[C@@H](NC(=O)OCc2ccccc2)CCC1=O | inactive: -29.6% | –
O=C(C[C@@H]1C/C=C/CC[C@H](Cc2ccc(F)cc2)C(=O)O[C@H](c2ccccc2)CNC1=O)NCCO | inactive: -0.642% | –
CC1(C)C=Cc2c(c3c(c4c(=O)c(-c5ccc(O)cc5)coc24)OC(C)(C)CC3)O1 | – | active: 18.4 µM
COc1cc(NC(=O)NCC2CCN(Cc3ccccc3Cl)CC2)cc(OC)c1OC | inactive: 8.7% | –
CCOC(=O)c1c(C)[nH]c(C)c1S(=O)(=O)NCCc1sccc1C | inactive: 0.693% | –
CCOC(=O)c1cnc2c(Cl)c(Cl)ccc2c1NCCN1CCOCC1 | inactive: -8.53% | –
CCOC(=O)CSC1=N/C(=C\c2cc(OC)c(OC)c(OC)c2)C(=O)N1C | inactive: 35.4% | –
CC(=O)Nc1ccc(-c2cc3ccccc3o2)cc1 | inactive: 34.8% | –
Cc1cccc(C)c1NC(=O)C1C(c2ccc3c(c2)OCO3)=Nc2ccccc2N1C(=O)c1cccc2ccccc12 (stereo not given) | – | active: 6.51 µM
Cc1ccc(N(CC2=NCCN2)c2cccc(O)c2)cc1 | – | inactive
Cc1cc(C)c(NC(=O)CSc2nc3c(c(=O)n2C)SC(C)C3)c(C)c1 (stereo not given) | – | active: 20.6 µM
CC1CCN(c2nc3c(=O)[nH]c(N)nc3n2[C@@H]2O[C@H](CO)[C@@H](O)[C@H]2O)CC1 | inactive: -1.31% | –
CC1(OC(=O)CCc2ccccc2)C(=O)C=C2C=C(c3ccc(C#N)cc3)N(CC3CC3)C=C2C1=O (stereo not given) | – | active: 14.6 µM
C[C@@H](O)CNC(=O)c1[nH]cnc1C(=O)Nc1cccc(Cl)c1 | inactive: -4.02% | –
COC(=O)[C@H](c1ccccc1Cl)N1CCc2sccc2C1 | inactive: -0.907% | –
C[C@]12CCC(=O)C=C1CC[C@@H]1[C@@H]2C(=O)C[C@@]2(C)[C@H]1CC[C@]2(O)C(=O)CO | – | inactive
CCOc1ccccc1N1CC(O)=C(c2nc3ccccc3s2)C1=N | – | active: 3.26 µM
O=C1CN(C(=O)Nc2ccccc2Cl)C(c2ccccc2)c2c(sc3c2CCCC3)N1 (stereo not given) | – | active: 23.1 µM
COC(=O)c1ccc(Cn2nc(-c3ccc(C)cc3)ccc2=O)cc1 | inactive: -2.05% | –
CC(C)c1ccc(NC(=O)CCS(=O)(=O)c2cccc3nonc23)cc1 | inactive: 6.34% | –
CCOc1[nH]n(-c2ccc(Cl)cc2)c(=O)c1C=NCC(=O)OC | inactive: -9.62% | –
Cc1ccc(C)c(N2CCN(C(=O)CC3Sc4ccccc4NC3=O)CC2)c1 (stereo not given) | – | active: 18.4 µM
